The values that follow come from patent publication US20050112748A1 (published 2005).

The test deals with T1, HA-tagged full-length N-WASP expressed in Balb/3T3 cells (UniProt Q95107 1-505).
T1 construct: also called HA-tagged N-WASP; not shown: hemagglutinin (HA)3-tag of the pEF-BOS/HA vector
Description: GST pull-down from Balb/3T3 lysate, anti-HA immunoblot. The text has this:
Coding sequences of the wild-type small GTPase were ligated in-frame to a glutathione S-transferase (GST)-tag of pGEX-2T vector (Amersham Biosciences). The GST-tagged recombinant proteins were expressed in E. coli strain XL1-Blue and affinity-purified with glutathione-Sepharose 4B (Amersham Biosciences). The cDNA encoding full-length N-WASP was fused in-frame to the hemagglutinin (HA)₃-tag of pEF-BOS/HA vector. This recombinant plasmid was transfected to Balb/3T3 cells. Twenty-four hours after the transfection, the cells were lysed with RIPA buffer (150 mM NaCl, 50 mM Tris-HCl, pH 8.0, 1% Nonidet P-40, 0.5% Na deoxycholate, and 0.1% SDS) containing 1 mM dithiothreitol, 0.1 mM phenylmethylsulfonyl fluoride, and 4 mM MgCl₂ and centrifuged for 15 minutes at 16,000×g. […] The bound proteins were eluted with 5 mM glutathione in 50 mM Tris-HCl (pH 8.0), The eluted proteins were subjected to SDS-PAGE, and then HA-tagged N-WASP was detected by immunoblotting with anti-HA-tag polyclonal antibody (pAb) (MBL), horseradish peroxidase-conjugated goat anti-rabbit IgG (Bio-Rad) as a secondary antibody, and Renaissance western blot chemiluminescence reagent Plus (NEN Life Science Products).
Next, the binding of these Cdc42 subfamily proteins to N-WASP was assessed by pull-down assay. […]

T1 sequence (Q95107 whole entry): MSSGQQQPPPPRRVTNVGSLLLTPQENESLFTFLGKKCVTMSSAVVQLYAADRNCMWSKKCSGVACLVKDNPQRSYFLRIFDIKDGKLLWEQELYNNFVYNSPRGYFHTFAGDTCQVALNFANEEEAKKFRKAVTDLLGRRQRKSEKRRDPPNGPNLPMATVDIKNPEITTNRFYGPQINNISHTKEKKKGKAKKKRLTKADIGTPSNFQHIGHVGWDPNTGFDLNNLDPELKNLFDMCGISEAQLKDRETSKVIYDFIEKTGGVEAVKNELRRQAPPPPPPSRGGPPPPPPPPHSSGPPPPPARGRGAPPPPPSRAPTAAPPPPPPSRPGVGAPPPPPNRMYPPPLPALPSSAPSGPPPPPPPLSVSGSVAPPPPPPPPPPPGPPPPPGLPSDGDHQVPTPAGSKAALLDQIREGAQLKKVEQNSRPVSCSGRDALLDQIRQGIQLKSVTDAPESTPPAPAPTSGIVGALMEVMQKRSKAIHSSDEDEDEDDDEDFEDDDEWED

B1: GST-tagged RhoA loaded with GDP (enzyme)
chain: not shown
notes: Same polypeptide as m18 but loaded with 1 mM GDP; also called GDP-loaded RhoA; not shown: glutathione S-transferase (GST)-tag of the pGEX-2T vector (Amersham Biosciences)
On to B1, for which the binding result is listed as “no binding”.

B2: GST-tagged RhoA loaded with GTPγS (enzyme)
chain: not shown
notes: Control of the pull-down assay, loaded with 1 mM GTPγS; the methods speak of 'the wild-type small GTPase' without naming RhoA; also called GTPγS-loaded RhoA; not shown: glutathione S-transferase (GST)-tag of the pGEX-2T vector (Amersham Biosciences)
Regarding B2, the binding result was “no binding”.
